From article PMC4336329 (PLoS ONE, 2015)
Out of some 310,000 compounds screened, about 14,000 (4.5%) showed an effect of 50% or more. Effects have a minus sign here. The list shows a part of the results.

Target: human ether-à-go-go-related gene (hERG) potassium channel (human, UniProt Q12809)
Assay: primary screen, population patch clamp on CHO cells stably expressing hERG
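Note: peak tail current of the secondary pulse compared with the same well before compound.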

Sequence of human ether-à-go-go-related gene (hERG) potassium channel (Q12809 whole entry, looked up): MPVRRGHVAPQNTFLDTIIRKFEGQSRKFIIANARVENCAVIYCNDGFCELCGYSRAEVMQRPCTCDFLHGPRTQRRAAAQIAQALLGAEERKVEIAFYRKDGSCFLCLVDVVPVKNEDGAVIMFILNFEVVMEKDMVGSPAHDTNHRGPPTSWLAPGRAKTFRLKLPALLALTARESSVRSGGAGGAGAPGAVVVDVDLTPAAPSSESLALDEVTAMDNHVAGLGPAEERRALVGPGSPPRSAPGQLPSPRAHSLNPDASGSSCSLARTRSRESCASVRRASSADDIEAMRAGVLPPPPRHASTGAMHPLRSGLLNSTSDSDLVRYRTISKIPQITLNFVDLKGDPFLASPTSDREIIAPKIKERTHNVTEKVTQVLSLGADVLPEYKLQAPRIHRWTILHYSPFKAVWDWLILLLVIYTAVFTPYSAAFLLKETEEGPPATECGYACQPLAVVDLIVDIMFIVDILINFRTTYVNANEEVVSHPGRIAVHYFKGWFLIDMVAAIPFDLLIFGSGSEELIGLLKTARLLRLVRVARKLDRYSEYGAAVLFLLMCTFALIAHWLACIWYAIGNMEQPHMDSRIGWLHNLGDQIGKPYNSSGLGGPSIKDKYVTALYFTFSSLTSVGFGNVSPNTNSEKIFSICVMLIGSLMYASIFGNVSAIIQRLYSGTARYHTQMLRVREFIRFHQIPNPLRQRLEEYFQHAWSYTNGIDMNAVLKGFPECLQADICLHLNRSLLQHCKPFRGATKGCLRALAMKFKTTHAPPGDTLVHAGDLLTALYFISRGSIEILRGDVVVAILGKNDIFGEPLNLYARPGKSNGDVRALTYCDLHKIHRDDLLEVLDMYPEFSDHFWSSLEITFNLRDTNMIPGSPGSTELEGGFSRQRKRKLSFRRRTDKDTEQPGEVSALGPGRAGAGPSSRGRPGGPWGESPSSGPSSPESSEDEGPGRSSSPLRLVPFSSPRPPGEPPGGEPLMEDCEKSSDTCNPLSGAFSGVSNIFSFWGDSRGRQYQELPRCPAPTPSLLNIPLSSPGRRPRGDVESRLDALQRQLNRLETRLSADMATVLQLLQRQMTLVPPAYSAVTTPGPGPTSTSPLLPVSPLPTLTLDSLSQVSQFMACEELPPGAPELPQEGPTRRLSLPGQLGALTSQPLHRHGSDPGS

First: CSc1nsc(/C=C/Nc2ccc(F)cc2F)c1C#N
Second: COc1cc(Br)c(-c2sc(Nc3ccccc3)n[n+]2-c2ccc(F)cc2)cc1OC.[Cl-]
The “hERG current change (%, negative = inhibition) at 10uM” value of the first is higher: 9.53% for the first, -37.1% for the second.

Going from `O=C(/C=C/c1ccccc1)NC(NC(=S)Nc1cc(Cl)ccc1Cl)C(Cl)(Cl)Cl` (centres unmarked) to `CC(C)n1cc(/C=N/Nc2ccc(Cl)c(C(=O)O)c2)c2ccccc21`, the “hERG current change (%, negative = inhibition) at 10uM” value falls from 15.1% to 14.7%.

Going from `O=C(c1cc(-c2ccncc2)nc2c(Cl)cccc12)N1CCN(c2ccccc2F)CC1` to `Cc1[nH]c2ccccc2c1C(c1ccncc1)N1CCN(c2ccc(F)cc2)CC1` (centres unmarked), the “hERG current change (%, negative = inhibition) at 10uM” value rises from -46.3% to 6.47%.

First: COc1ccc(C(=O)COC(=O)CCC(=O)c2cccs2)cc1
Second: COc1ccccc1OCC(=O)NNC(=O)c1cccs1
The “hERG current change (%, negative = inhibition) at 10uM” value of the first is lower: -34.4% for the first, 19.8% for the second.

Going from `N#CC1=C(N)OC2=C(C(=O)CCC2)C1Cc1ccccc1` (centres unmarked) to `C/C(Cc1ccccc1)=N\NC(=O)C1CCCCC1`, the “hERG current change (%, negative = inhibition) at 10uM” value rises from 0.947% to 12.5%.

First: COc1ccc2nc(C)cc(SCC(=O)NNC(=O)COc3ccc(C)cc3)c2c1
Second: COc1ccc(/C=C2/SC(=O)N(CCNC(=O)CC(NC(C)=O)c3ccccc3)C2=O)cc1 (centres unmarked)
The “hERG current change (%, negative = inhibition) at 10uM” value of the first is higher: 16.2% for the first, -3.85% for the second.

First: O=C1c2cccnc2C(O)N1Cc1cccs1 (centres unmarked)
Second: O=C(CSc1ccccn1)Nc1ccc(Br)cn1
The “hERG current change (%, negative = inhibition) at 10uM” value of the first is lower: -4.79% for the first, -4.31% for the second.

Compared with `Cc1cc(C)cc(N(C(=O)Cn2nnc3ccccc32)C(C(=O)NCc2ccco2)c2ccncc2)c1` (centres unmarked), `Cc1cccc(N(C(=O)c2snc(C(N)=O)c2N)C(C(=O)NCc2ccccc2)c2ccncc2)c1` (centres unmarked) is higher in “hERG current change (%, negative = inhibition) at 10uM” value: -6.94% for the first, 12% for the second.

First: O=C(CSc1ncn[nH]1)Nc1nc(-c2cccc([N+](=O)[O-])c2)cs1
Second: Cc1ccc(C)c(-c2csc(NC(=O)C3=COCCO3)n2)c1
The “hERG current change (%, negative = inhibition) at 10uM” value of the first is higher: -13.8% for the first, -19.2% for the second.

Compared with `C/C(=N\N1CCN(Cc2ccc(Cl)cc2)CC1)c1ccc([N+](=O)[O-])cc1`, `CC(=O)N1CCN(c2ccc(NC(=O)c3cccc(Cl)c3)cc2)CC1` is higher in “hERG current change (%, negative = inhibition) at 10uM” value: -72.6% for the first, -7.02% for the second.

Going from `CCCN1C(=O)SC(CC(=O)Nc2ccc(Br)cc2)C1=O` (centres unmarked) to `CCCCC(=O)Nc1ccc(N2CCCC2)cc1`, the “hERG current change (%, negative = inhibition) at 10uM” value falls from 2.86% to -3.21%.

Compared with `O=C(CN(C(=O)c1csnn1)c1ccccc1F)NCc1ccccc1`, `O=C(CSc1nncc2ccccc12)Nc1ccccc1` is lower in “hERG current change (%, negative = inhibition) at 10uM” value: -2.58% for the first, -15.1% for the second.

Compared with `CC(=O)Nc1ccc(S(=O)(=O)N2CCC3(CC2)CC(=O)c2ccccc2O3)cc1`, `O=C(c1ccc(S(=O)(=O)Nc2ccccc2)cc1)N1CCCC(C(F)(F)F)C1` (centres unmarked) is higher in “hERG current change (%, negative = inhibition) at 10uM” value: -36.6% for the first, -3.39% for the second.

Compared with `COc1ccc(OCCN(C)C(=O)c2cccc(S(=O)(=O)N(C)c3ccccc3)c2)cc1`, `CC(C)c1cc(C(N)=O)c(NC(=O)c2cccc(COc3ccc(Cl)cc3)c2)s1` is higher in “hERG current change (%, negative = inhibition) at 10uM” value: -48.5% for the first, 3.76% for the second.

Going from `COc1ccccc1CNC(=O)C(CCSC)NC(=O)C1CCC(C)CC1` (centres unmarked) to `CCOc1ccccc1NC(=S)NC(=O)C1CC1`, the “hERG current change (%, negative = inhibition) at 10uM” value rises from 3.2% to 15.9%.

Compared with `Cc1ccccc1NC(=O)c1cc([N+](=O)[O-])ccc1NCCN1C(=O)CCC1=O`, `CCOC(=O)C1=C(C)N(CCCC(=O)O)C(=O)NC1c1ccccc1OS(=O)(=O)c1ccccc1[N+](=O)[O-]` (centres unmarked) is higher in “hERG current change (%, negative = inhibition) at 10uM” value: -4.71% for the first, 16.8% for the second.

First: O=C(Nc1ccc(F)cc1)N(Cc1cccs1)Cc1cc2cc3c(cc2[nH]c1=O)OCO3
Second: NC(=O)C1CCCN(C(=O)c2ccc(NC(=O)c3cccs3)cc2)C1 (centres unmarked)
The “hERG current change (%, negative = inhibition) at 10uM” value of the first is higher: 15.1% for the first, 2.82% for the second.

Going from `O=C(c1ccc(N2CCOCC2)cc1[N+](=O)[O-])N1CCOCC1` to `COc1ccccc1/C=C/C(=O)NC(=S)N1CCOCC1`, the “hERG current change (%, negative = inhibition) at 10uM” value rises from 2.97% to 15.9%.

Going from `CCSc1nc2ccccc2c(=O)n1OCC(=O)OC` to `CCn1nnc(NC(=O)c2cc3ccccc3o2)n1`, the “hERG current change (%, negative = inhibition) at 10uM” value falls from 6.32% to 4.36%.

First: CCCCn1c(N)c(N(CCOC)C(=O)C2CCN(S(=O)(=O)c3ccccc3)CC2)c(=O)[nH]c1=O
Second: CC(C)CN(C(=O)COC(=O)c1ccc(Br)cc1)c1c(N)n(Cc2ccccc2)c(=O)[nH]c1=O
The “hERG current change (%, negative = inhibition) at 10uM” value of the first is lower: -3.64% for the first, -2.83% for the second.

Going from `COc1ccc(-c2c(C)nn3c(N4CCN(Cc5ccccc5)CC4)cc(C)nc23)cc1OC` to `COc1cc(/C=N/NC(N)=S)ccc1OCc1ccc(C)cc1`, the “hERG current change (%, negative = inhibition) at 10uM” value falls from 9.35% to -10.1%.

First: OCC[C@@H]1C[C@@H](O)[C@H](O)[C@@]2(Cc3ccccc3CCO2)O1
Second: Cc1cccc(C(=O)O[C@@H]2[C@H](Cc3ccccc3)NS(=O)(=O)[C@H]3C[C@@H]4C=C[C@]23O4)c1
The “hERG current change (%, negative = inhibition) at 10uM” value of the first is higher: 11% for the first, 6.14% for the second.

Going from `Cn1c(=O)n(C)c2cc(NS(=O)(=O)c3ccc(Br)s3)ccc21` to `O=C(O)Cc1ccc(NS(=O)(=O)c2ccccc2Br)cc1`, the “hERG current change (%, negative = inhibition) at 10uM” value rises from -3.63% to 15.8%.

Compared with `Cc1cccc(NC(=S)NC2CCCC2)c1C`, `CCOC(=O)c1c2n(c3ccc(O)cc13)CCC2` is higher in “hERG current change (%, negative = inhibition) at 10uM” value: 7.79% for the first, 21.1% for the second.

Compared with `N=C(N)Cc1ccccc1Sc1ccccc1.O=C(O)/C=C\C(=O)O`, `Br.Cc1ccccc1Cn1ccc(=NCc2ccccc2)cc1` is lower in “hERG current change (%, negative = inhibition) at 10uM” value: -1.09% for the first, -3.72% for the second.

First: CCOC(=O)C(CCCCCOc1ccccc1[N+](=O)[O-])C(=O)OCC
Second: COc1ccc(C(=O)NCC(=O)N/N=C/c2ccc([N+](=O)[O-])o2)cc1OC
The “hERG current change (%, negative = inhibition) at 10uM” value of the first is higher: -8.54% for the first, -44.3% for the second.

First: Cc1cc(=O)[nH]c(=S)[nH]1
Second: CCCNC(=O)c1cccc(C(F)(F)F)c1
The “hERG current change (%, negative = inhibition) at 10uM” value of the first is higher: 14.9% for the first, 7.54% for the second.

First: OCCN(CCO)Cc1ccc(Br)cc1
Second: CCOCCCNC(=O)c1ccc(OC)cc1
The “hERG current change (%, negative = inhibition) at 10uM” value of the first is lower: -3.79% for the first, 24.1% for the second.
